# In the supplement of paper PMC10126150:
# Values marked as one replicate rest on one cluster of the flow cell; about a third of the high ones do not repeat.
# System: ATP
# Test: switch fluorescence ratio, 500 uM ATP over buffer (Cy3 cluster intensity, sum of 5 cycles each) (fold (ratio)); higher = stronger signal-on switching upon ATP binding; sequences stand for … in TCGTCGGCAGCGTCAGATGTGTATAAGAGACAGTTTTTTTTTTTTTTTTTTTTTTTTT…TC
# Conditions: aptamer strand: ATP DNA aptamer (quencher-CACCTGGGGGAGTATTGCGGAGGAAGG + anchor), 100 nM annealed; ATP concentration: 500 uM; one replicate
# Summary of the method: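 Cy3-labelled switching-strand clusters on a modified Illumina MiSeq flow-cell were annealed to 100 nM quencher-labelled ATP aptamer and imaged first in selection buffer, then after 15 min with 500 uM ATP at 22 °C. NaOH stripping and re-annealing separated each of five buffer/ATP cycles, and clusters outside 100-1000 RFU were excluded. The fluorescence ratio sums target-cycle Cy3 intensity over buffer-cycle Cy3 intensity per cluster and averages it per switch-domain sequence.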
# 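Note: ATP exposure 15 min at 22 °C before imaging.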
row,Sequence,switch fluorescence ratio
1,TGCATCATAG,1.06
2,TGCATCCGCC,1.7
3,TGCATCGTGG,1.02
4,TGCATCTACA,0.999
5,TGCATCTTTA,0.983
6,TGCATGCGTA,0.978
7,TGCATGGACC,1.03
8,TGCATGTT,0.983
9,TGCATTCCGG,1.1
10,TGCATTCTTC,0.979
11,TGCATTGCGG,0.996
12,TGCATTTCTC,1.13
13,TGCCACGGTG,2.16
14,TGCCACTTTT,0.967
15,TGCCATCCGC,1.4
16,TGCCATTCAG,1.04
17,TGCCCAGGGT,1.05
18,TGCCCGCGGT,1.1
19,TGCCGAAACT,1.03
20,TGCCGCGGCT,1
21,TGCCTACCTT,1.06
22,TGCCTCGAAA,1.25
23,TGCCTTTATG,0.987
24,TGCGACGAGT,0.986
25,TGCGAGGTTT,0.994
26,TGCGAGTGTG,1.01

row,Sequence,switch fluorescence ratio
1,TGCGATTATT,1.01
2,TGCGATTCTC,1.34
3,TGCGATTGGC,0.969
4,TGCGCATAAG,1.06
5,TGCGCTTACT,1.92
6,TGCGGAATC,1.63
7,TGCGGCTCTA,0.961
8,TGCGGGTCT,0.991
9,TGCGTACA,0.993
10,TGCGTAGGGA,1.03
11,TGCGTTAGGG,1.01
12,TGCGTTGGTC,1.08
13,TGCTAATGAG,0.977
14,TGCTACGCGG,1.34
15,TGCTACGGTT,1.03
16,TGCTAGATTT,1.01
17,TGCTAGCAAT,1.04
18,TGCTAGTAGT,1.02
19,TGCTAGTTGC,0.994
20,TGCTATGCCT,0.99
21,TGCTATTAAC,1.03
22,TGCTATTTGA,0.962
23,TGCTCCAGGT,1.87
24,TGCTCCCCGG,1.12
25,TGCTCCGATC,3.28
26,TGCTCTCCGG,1.19

row,Sequence,switch fluorescence ratio
1,TGCTGCTATG,1
2,TGCTGGAAAT,0.994
3,TGCTGGAATT,0.992
4,TGCTGGACCA,0.977
5,TGCTGGGAG,1.1
6,TGCTGTAGCA,1.04
7,TGCTGTAGTT,0.971
8,TGCTGTTATA,1.02
9,TGCTGTTTAA,0.992
10,TGCTTAGAGA,0.954
11,TGCTTATAG,0.994
12,TGCTTCTGA,0.968
13,TGCTTCTTCT,2.25
14,TGCTTGCCAT,0.985
15,TGCTTGGAAT,1.01
16,TGCTTGTGTC,1.03
17,TGCTTTCATC,1.01
18,TGCTTTCTGA,1.03
19,TGCTTTCTTT,0.951
20,TGCTTTGTAT,1.01
21,TGCTTTTGGC,0.994
22,TGGAAAGAAT,0.967
23,TGGAAAGGCA,0.956
24,TGGAAATGGT,1
25,TGGAACACGC,1.05
